Experimental findings from PubChem BioAssay AID463173 (ICCB-Longwood Screening Facility, Harvard Medical School, 2010) are described below.

The campaign covered roughly 52,000 compounds. About 4,300 (8.3%) were called active. No stated cut-off is given here; in the data, active means survival mostly below about 52% (no sharp cut-off); inactive means mostly above about 56%. This is one part of the list.

In this assay the test system is DeltatarO mutant. Kind of assay: S. aureus survival, RN4220 and DeltatarO strains – OD600, teichoic acid synthesis inhibitors, primary screen (AID 463173). The settings on record: S. aureus RN4220 wild type/DeltatarO growth, OD600, 18 h, stronger effect = lower value, screened at 18.75 µg/mL (by protocol).
Consider `Cc1c(NC(=O)C(C)(C)C)cccc1-c1nc2ccccc2s1`, for which the survival was inactive: 49%.
For `Cc1ccc(-n2nc(C(=O)N3CCN(c4cc(C)ccc4C)CC3)c3c4ccccc4n(C)c3c2=O)cc1` the value was inactive: 92%; for `Cn1cc(S(=O)(=O)N2CCc3ccccc32)cc1C(=O)Nc1ccc(C(F)(F)F)cc1`, inactive: 75%.
For `CC1Cc2cc(S(=O)(=O)CCC(=O)Nc3ccc(F)cc3Cl)ccc2N1C(=O)C1CC1` (stereo not given) the value was inactive: 60%.
Under `CCN(CC)c1ccc(NC(=O)Cn2cc3c(n2)CCCC3)c(C)c1` stands inactive: 121%; under `CCc1ccc(NC(=O)CSc2nc3c([nH]c4ccccc43)c(=O)n2C)cc1`, inactive: 83%.
`Cn1c(=O)n(C)c2cc(N3CCCCC3)c(NC(=O)Nc3ccc(Br)cc3)cc21`: the survival was inactive: 88%.
As for `C/C(=N/NC(=O)Cc1cccs1)c1ccc(C)cc1`, the survival is inactive: 80%.
Under `Cc1cccc(CNC(=O)c2ccc(Cn3c(SCc4cccc(F)c4)nc4cccnc43)cc2)c1` stands inactive: 83%; under `CCCSc1ncc(Cl)c(C(=O)Nc2ccc(S(=O)(=O)N3CCCCC3C)cc2)n1` (stereo not given), inactive: 51%.
For `Ic1ccc(Nc2nc3nonc3nc2N/N=C\c2ccco2)cc1` the value was inactive: 53%; for `COc1cccc(NC(=O)C2CC(=O)N(c3ccc(Br)cc3)C2)c1` (stereo not given), inactive: 65%; for `CCOc1ccc(-n2cc(-c3ccccc3)c3c(NCc4ccccc4)ncnc32)cc1`, inactive: 71%.
For the compound `COC(=O)Cc1c(C)c2ccc3c(c2oc1=O)CN(Cc1ccc(Cl)cc1)CO3`, the survival was inactive: 66%.
`COCCn1c(SCc2ccccc2F)nc2c([nH]c3ccccc32)c1=O`: the survival was inactive: 99%.
On to `OC1(C#Cc2ccccc2)CCCCC1`, for which the survival was inactive: 104%.
For `CC(Oc1ccccc1)C(=O)Nc1ccccc1C(=O)OCc1cc(=O)n2nc(C3CC3)sc2n1` (stereo not given) the value was inactive: 119%; for `CCc1nnc(SCC(=O)Nc2ccc(OC)c(OC)c2)c2cc3occc3n12`, inactive: 80%; for `CCc1ccc(N2CC(C)Cn3c2nc2c3c(=O)n(CC(=O)O)c(=O)n2C)cc1` (stereo not given), inactive: 77%.
Consider `CCOc1ccc(-c2cc(C)n3nc(C(=O)Nc4ccc(C)c(C)c4)cc3n2)cc1`, for which the survival was inactive: 56%.
As to `COC(=O)Cc1c(C)nc2nc(NCc3ccc(Br)cc3)[nH]n2c1=O`, the survival was inactive: 90%.
Take `NCC1NCCc2ccccc21` (stereo not given): the survival was inactive: 68%.
Under `CCOC(=O)CN(Cc1ccccc1)C(C(=O)NC1CCCCC1)c1ccccc1` (stereo not given) stands active: -1%.
In the case of `CCCCSc1nc(O)c(CCC(C)C)c(=O)[nH]1`, the survival was inactive: 60%.
As to `Cc1ccccc1OCc1nnc(SCc2cc(=O)c3cc(F)ccc3[nH]2)n1C`, the survival is inactive: 88%.
Under `N#C/C(=C\c1cccc(F)c1)c1nc(-c2cc3ccccc3oc2=O)cs1` stands inactive: 80%.
Under `CCC1CN(CC(=O)NCc2cccc(Br)c2)c2ccccc2S1` (stereo not given) stands inactive: 97%.
With `Cc1ccc(S(=O)(=O)c2cn(CC(=O)Nc3ccc4c(c3)OCO4)c3ccc(C)cc3c2=O)cc1`, the survival is inactive: 73%.
Turning to `COc1ccc(-c2nc3ccccc3o2)cc1NC(=O)c1cc([N+](=O)[O-])ccc1N1CCOCC1`, the survival is active: 44%.
`COc1ccc(-c2ccc(CCC(=O)O)n2-c2ccccc2C(F)(F)F)cc1`: the survival is inactive: 116%.
For `CCOC(=O)CSc1nc2ccc(NC(=O)COc3ccccc3C)cc2s1`, the survival was inactive: 85%.
For `COC(=O)CN1C(=O)C(O)(CC(=O)c2ccc(F)cc2)c2ccccc21` (stereo not given) the value was inactive: 63%; for `Cc1ccc(-n2c3nc(=O)[nH]c(=O)c-3cc3c(C)nn(-c4ccccc4)c32)c(C)c1`, inactive: 90%; for `Cc1ccc(Cl)cc1NC(=O)CCS(=O)(=O)c1ccc2c(c1)n(C)c(=O)c(=O)n2C`, inactive: 86%.
For `Cc1nn(CC(=O)N2CCCCC2)c(=O)c2cc3occc3n12` the value was inactive: 109%; for `Cc1ccc(C2C(C#N)=C(N)OC3=C2C(=O)CC(C)(C)C3)s1` (stereo not given), inactive: 69%.
On to `CCc1ccc(C2CC(=O)Oc3c2c(=O)n(C)c2ccccc32)cc1` (stereo not given), for which the survival is inactive: 65%.
Under `COc1ccc(N(C)C(=O)c2cc(S(=O)(=O)N3CCc4ccccc43)cn2C)c(OC)c1` stands inactive: 101%; under `Cc1cccc(-c2nc(C(N)=O)c3c(n2)n(-c2ccc4c(c2)OCO4)c(=O)n3C)c1`, inactive: 90%; under `Cn1c(=O)c2nc(SCC(=O)Nc3ccc(Cl)c(Cl)c3)n(C)c2n(C)c1=O`, inactive: 74%.
For `Cc1cc(C)cc(NC(=O)Cn2cc(C(=O)c3ccccc3)c(=O)c3ccc(C)nc32)c1` the value was inactive: 75%; for `Cc1ccc(CN(Cc2ccco2)c2cnc(S(C)(=O)=O)nc2C(=O)Nc2ccccc2Br)o1`, inactive: 44%.
Under `O=C(CSc1oc(-c2ccccc2)nc1S(=O)(=O)c1ccccc1)c1ccccc1` stands inactive: 148%.
Regarding `CC1CCCCN1C(=O)CSc1nc2ccccc2c(=O)[nH]1` (stereo not given), the survival was inactive: 82%.
As to `COc1cccc(NC(=O)c2ccc3nc(Cc4ccccc4)oc3c2)c1`, the survival was inactive: 66%.
Under `COc1ccc(-c2cc(C(=O)Nc3sc4c(c3C#N)CCCC4)no2)cc1OC` stands inactive: 63%; under `CCc1ccc(-n2c(SCc3cccc(F)c3)nc3[nH]ncc3c2=O)cc1`, inactive: 80%; under `O=C1CSC2(CCCCC2)N1c1ccc(Cl)cc1`, inactive: 90%.
For `CC(NC(=O)C1CCN(S(=O)(=O)c2ccc3nc4c(c(C(=O)O)c3c2)CCCC4)CC1)c1ccccc1` (stereo not given) the value was inactive: 122%; for `CC(C)Cn1cc(NC(=O)NCc2ccccc2Cl)c2ccccc2c1=O`, inactive: 95%; for `Cc1nnc(NC(=O)C(=O)c2cc(C)n(-c3ccc(C)c(C)c3)c2C)s1`, inactive: 100%.
Under `Nc1cc(N)nc(SCc2ccccc2C(F)(F)F)n1` stands inactive: 79%.
Consider `Cc1ccc(C(=O)Nc2ccc3oc(-c4ccncc4)nc3c2)c(Cl)c1`, for which the survival was inactive: 62%.
As for `Cc1cccc(-n2c(=O)c3c(c4cc(C)ccc4n3C)n(CC(=O)Nc3ccc(C)cc3C)c2=O)c1`, the survival is inactive: 69%.
For `COc1ccc(-c2cn3c(n2)sc2cc(C(=O)Nc4cc(OC)cc(OC)c4)ccc23)cc1` the value was inactive: 79%.
For the compound `N#Cc1c(NC(=O)CS(=O)(=O)c2ccc(Cl)cc2)sc2c1CCCCC2`, the survival was inactive: 81%.
`COc1ccc(-c2ccc(CCC(=O)O)n2CC(=O)Nc2cccc(C(F)(F)F)c2)cc1`: the survival is active: 54%.
As for `Cc1nn(-c2ccccc2)c(OC(=O)C(C)(C)C)c1Sc1ccccc1`, the survival is inactive: 62%.
Turning to `Cc1ccc2nc(NCCc3ccccc3)c3nncn3c2c1`, the survival is inactive: 92%.
Under `Cc1ccc(Cn2c(SCc3ccc(C(=O)NC4CCCC4)cc3)nc3ccncc32)cc1` stands inactive: 70%; under `CCn1c(=O)cc(OCC(=O)Nc2ccc(C)c(F)c2)c2ccccc21`, inactive: 60%; under `O=c1oc2ccccc2cc1-c1cn2cc(Cc3ccccc3F)sc2n1`, active: 49%.
Regarding `Cc1ccc(-n2c(-c3ccco3)nc3c(cnn3-c3ccccc3C)c2=O)cc1`, the survival was inactive: 124%.
Consider `COc1ccc(CN2C(=O)N(c3ccc(C)cc3)C(=O)C2CC(=O)Nc2ccccc2)cc1OC` (stereo not given), for which the survival is inactive: 80%.
With `O=[N+]([O-])c1cc(-c2nc(-c3ccccc3)no2)ccc1NC1CCCC1`, the survival is inactive: 105%.
Under `COc1ccc(N2CCN(C(=O)c3ccc4c(Cl)c5c(nc4c3)CCCC5)CC2)cc1` stands inactive: 103%; under `CCOc1ccccc1NC(=O)NC1CC2CCCC(C1)N2Cc1nnnn1CCc1ccccc1` (stereo not given), inactive: 85%; under `CCOC(=O)c1c(NC(C)=O)c2c3c(sc2n1Cc1nc(-c2cccc(C)c2)oc1C)CCCC3`, inactive: 93%.
Under `Cc1ccc2nsnc2c1S(=O)(=O)N1CCCC1` stands inactive: 106%; under `COc1cc(-c2cc(OC)c3c(C)oc(C)c3c(=O)c2)ccc1OC(=O)c1ccccc1F`, inactive: 89%; under `COc1ccccc1-c1nc(CNC(=O)Nc2ccccc2)c(C)o1`, inactive: 98%.
For `COc1ccccc1C(=O)NC1=NC(c2ccc(Br)cc2)CC(=O)N1` (stereo not given) the value was inactive: 34%; for `CCOc1ccc(S(=O)(=O)Nc2cc(Cl)ccc2OC)c2cccnc12`, inactive: 69%; for `Cc1ccc(/C=C/c2onc(C)c2S(=O)(=O)N2CCC(C(=O)Nc3cc(F)ccc3F)CC2)cc1`, inactive: 73%.
As for `O=C(CC(c1ccc(Cl)cc1)S(=O)(=O)c1ccccc1)c1ccco1` (stereo not given), the survival is inactive: 88%.
Under `CCc1nn(CC(=O)NCCCOC)c(=O)c2cc3ccccc3n12` stands inactive: 96%; under `Cc1ccc(CN2CCCn3nc(C(=O)NCC(C)c4ccccc4)cc3C2=O)cc1` (stereo not given), inactive: 95%; under `COc1ccc(Nc2oc(/C=C/c3ccc(OC)c(OC)c3)nc2C#N)cc1`, inactive: 73%.
Regarding `COCCn1c(=O)[nH]c2cc(C(=O)Nc3cccc(C(C)=O)c3)ccc2c1=O`, the survival was inactive: 81%.
Under `Cc1cc(C)c2oc(C(=O)Nc3ccc(S(=O)(=O)Nc4nccc(C)n4)cc3)cc(=O)c2c1` stands inactive: 61%; under `CCCCOC(=O)c1ccc(Nc2nnc(-n3nc(C)cc3C)c3ccccc23)cc1`, inactive: 98%; under `Cc1nnc2c3ccccc3nc(Nc3cccc(O)c3)n12`, inactive: 101%.
`COc1cc(C2C(C(=O)Nc3ccccc3)=C(C)Nc3nnnn32)cc(OC)c1OC` (stereo not given): the survival was inactive: 74%.
Consider `COc1ccc(-c2noc(CN(C(=O)c3cc(OC)c(OC)cc3OC)C(C)C)n2)cc1`, for which the survival is inactive: 74%.
`O=C(NC1CC(=O)N(c2ccc(Cl)cc2)C1)c1ccc(S(=O)(=O)N2CCOCC2)cc1` (stereo not given): the survival is inactive: 74%.
For `O=C(O)CCC1NC(=O)NC1=O` (stereo not given), the survival was inactive: 101%.
With `CCOC(=O)c1ccc(NC(=O)c2nc(SCc3ccccc3F)ncc2Cl)cc1`, the survival was inactive: 49%.
For `Cc1ccc(Cl)cc1NC(=O)C1CCN(c2nc3ccccc3n3cccc23)CC1`, the survival is inactive: 62%.
For `CCCn1c2ccccc2c2cnn(CC(=O)NCCc3ccc(C)cc3)c(=O)c21` the value was inactive: 128%; for `CCOc1ccc2nc(N3CCCC(C(=O)NCc4ccccc4OC)C3)sc2c1` (stereo not given), inactive: 92%.
